This is one part of the list. At the low end of the ranking the order means little.

For this assay, the target named is SIX1 homeodomain (reference allele) (UniProt Q15475). As to the kind of experiment: universal protein binding microarray. Conditions: Universal all-10-mer PBM (8x60K, AMADID 030236), 300 nM GST-tagged protein, Alexa Fluor 488 anti-GST; buffer, salt, pH and temperature not stated; high values mean tight binding; most listed sequences are background and not binding sites; double strand, one strand shown.
In the case of ATGCCCGA, the binding signal stood at 0.0549 E-score. As to AAGGCCGC, the binding signal is -0.256 E-score.

As for GCGTTGCA, the binding signal was -0.0762 E-score. Then CGTGTAGC, with -0.0544 E-score. Under CGTGCTAC stands -0.196 E-score; under AAGTCCCC, -0.313 E-score. Then GTTTGACA, with 0.0344 E-score; and AATAAACA, with -0.19 E-score; and ACTGGCAC, with 0.0178 E-score. On to CAAGTCAA, for which the binding signal was -0.141 E-score.

In the case of ATCAAAGA, the binding signal is 0.0736 E-score. Under CTGGTATA stands 0.255 E-score; under ACGGCCGC, -0.14 E-score; under ATTTTGCA, -0.25 E-score.

For the sequence ATCCCCCA, the binding signal amounted to 0.392 E-score.

In the case of ACCGTTTA, the binding signal was -0.00455 E-score. Under ACGTGGTG stands 0.109 E-score; under GGTGGCCA, -0.228 E-score. GCACCGGC: the binding signal was -0.0302 E-score. Under CCCGTCCC stands -0.0319 E-score. Then AAAGCGTA, with -0.0808 E-score. As for CAACCGAG, the binding signal is -0.0891 E-score. Then ATATACAC, with 0.35 E-score. Then TCCATAAA, with -0.163 E-score; and CTCTACTC, with -0.0443 E-score; and AAGTTTGG, with -0.232 E-score. Then GAGTAATC, with 0.0857 E-score. In the case of CACAGCAG, the binding signal is -0.0291 E-score. Then ATTCCAAG, with -0.0107 E-score; and AAGTTGGA, with -0.123 E-score; and ACACAATA, with 0.138 E-score. Then CCTGCCAA, with -0.273 E-score; and AGCTTTAT, with -0.192 E-score; and CTCCAAGA, with -0.145 E-score. Regarding AGACACTA, the binding signal amounted to 0.0219 E-score. Then ACGTCCCA, with -0.198 E-score; and ACCCGGAC, with -0.0377 E-score. Under ACGTATAA stands 0.268 E-score; under CGGCGCCC, -0.241 E-score; under ATTAGTGC, -0.0649 E-score. Consider CCATGAAC, for which the binding signal was -0.0835 E-score. Then AGCGGTAC, with 0.0399 E-score; and AGGAGCGC, with -0.155 E-score; and ACTCTTGG, with -0.0355 E-score. Turning to CAATTGCC, the binding signal was -0.134 E-score.

Turning to ACTCATCG, the binding signal was -0.133 E-score. ATGCCGTA: the binding signal turned out to be 0.0342 E-score. Then GGTCCAGA, with -0.2 E-score; and CGGTCAGA, with -0.00541 E-score. Under CTACGGTC stands -0.215 E-score; under CTACGATA, 0.321 E-score. As to GACCAGCC, the binding signal is -0.17 E-score. Then GCCCTTTA, with -0.209 E-score; and CGGCGTTA, with -0.0987 E-score; and GGAAGGTA, with 0.0419 E-score. As for GGACTCTA, the binding signal is -0.133 E-score. Under AATTACAT stands -0.0193 E-score; under GAGGCAGC, -0.191 E-score; under CCACGAGA, 0.00767 E-score.

Consider ACGAGATA, for which the binding signal was 0.242 E-score. Then ATATAGAG, with 0.202 E-score. Then AGTAAAAC, with -0.00906 E-score. Then ACGGGACT, with -0.244 E-score. Take AGCGTAGC: the binding signal is -0.22 E-score.

As for GCACCATA, the binding signal was 0.0347 E-score. Under CATACAGG stands 0.148 E-score; under CAGCGCGC, -0.225 E-score. As for GTAAAGTA, the binding signal came to 0.0213 E-score.

Regarding TCAATGCA, the binding signal was -0.0927 E-score. Then ATTCGACC, with -0.152 E-score; and GAAGCTGC, with -0.0612 E-score; and ACGCCACT, with -0.0852 E-score. Then GAGGTAAA, with -0.269 E-score; and CAGGGGAA, with 0.0748 E-score; and CTGAAGCC, with -0.191 E-score. Regarding ACCACCTG, the binding signal came out at 0.0688 E-score. Under CAAGCATG stands -0.0273 E-score. Under AGCCCGTG stands 0.0107 E-score; under CCAACTGC, -0.126 E-score; under AGTTTGAC, -0.153 E-score.

As to ACACAAAT, the binding signal was -0.0105 E-score. Then ACTTACCA, with 0.0574 E-score; and GTCCGTGA, with -0.105 E-score; and CATCCTGA, with 0.169 E-score. Then ACTTTAGG, with -0.0969 E-score; and CACTTTGC, with -0.07 E-score. In the case of AGGTGGCA, the binding signal was -0.158 E-score.

Take AGCAGCCA: the binding signal is -0.322 E-score. Then ATAATGAC, with 0.0838 E-score; and AGAACGGC, with 0.105 E-score; and ATCATAAA, with 0.143 E-score. For the sequence CAATGCGA, the binding signal stood at 0.0352 E-score.

In the case of AAGTATCA, the binding signal was found to be 0.461 E-score.

With ATTTTCCG, the binding signal is -0.112 E-score. Under GCTTCTCA stands 0.165 E-score; under ATTTCAGC, -0.222 E-score. Under CAAGGCCC stands -0.288 E-score. Under GACACTGC stands 0.134 E-score; under AAAATCTG, -0.053 E-score. As for AATTGTCA, the binding signal was -0.15 E-score. Then GACGTTGA, with -0.0747 E-score; and CATAATCG, with 0.00656 E-score. With CGGATAAG, the binding signal came out at 0.187 E-score. As for GCAAGTAC, the binding signal was -0.332 E-score. Under CATAATTC stands -0.198 E-score; under CCGACTTA, 0.0412 E-score. Under CCTGCAAG stands 0.064 E-score; under AATCGGGG, 0.181 E-score. For the sequence ACACGCGG, the binding signal was -0.019 E-score. ATGCACCA: the binding signal is 0.0323 E-score. Under GCAGCATA stands -0.0476 E-score. Under AAGTAGCA stands -0.29 E-score. For ACAGCAGT, the binding signal was 0.0849 E-score.

As to ACTCGGCT, the binding signal is -0.185 E-score.

For AAACATAT, the binding signal came to 0.149 E-score. Under ACACCAAT stands 0.348 E-score.

Regarding AAATTACG, the binding signal was -0.261 E-score.

As for GTCCGGGA, the binding signal is -0.0803 E-score. Turning to CGTAACCA, the binding signal is -0.239 E-score.

For the sequence CCACTACA, the binding signal is 0.129 E-score. ACCCTATA: the binding signal turned out to be 0.195 E-score. Under ATGGCTGA stands 0.06 E-score. Under GGCGCGCA stands -0.115 E-score; under GGGTATAC, 0.416 E-score. Then GCGGTTAA, with -0.125 E-score; and CCACTCTC, with -0.0439 E-score; and AGAATACA, with 0.051 E-score. ACTTAAGG: the binding signal was -0.0431 E-score.

On to ATCCACAG, for which the binding signal was determined as 0.244 E-score. Then CTCAGAGC, with -0.0696 E-score. GCCGCTAA: the binding signal was -0.219 E-score. With CCACCTCG, the binding signal is -0.0811 E-score. Regarding GAGAGTAC, the binding signal was -0.212 E-score.

For CGCGCCCA, the binding signal is -0.0194 E-score. With TATGCACA, the binding signal came to 0.134 E-score.

Turning to CTTTGACC, the binding signal is -0.108 E-score.

Take CTGCGTCC: the binding signal was -0.26 E-score. Under CTACTCTC stands 0.0646 E-score; under ACTTGCTG, -0.188 E-score; under AATCGTGG, -0.0848 E-score. ACCTGTAG: the binding signal was -0.146 E-score.

For AACCTATA, the binding signal worked out at 0.205 E-score. Under CATCTCCG stands 0.149 E-score. Under CTCCCAGA stands 0.00686 E-score; under GACTAGGA, -0.188 E-score; under ACAAAGTG, 0.0436 E-score. Then AATTGGGC, with -0.198 E-score. As to AATTGCCT, the binding signal was -0.127 E-score. Under AAATCGTC stands -0.0608 E-score. Then CATGAAAC, with 0.0269 E-score; and AAAGGTCC, with -0.237 E-score; and CCCGTATC, with 0.469 E-score. CGTGCTAG: the binding signal was 0.00861 E-score. On to ACTCTCTG, for which the binding signal was -0.0582 E-score. On to GGCTTTTA, for which the binding signal is -0.177 E-score. Then ATGCACTG, with -0.0929 E-score. Under AAAAAAGG stands -0.113 E-score; under AGTTCCCG, -0.264 E-score. Under ACGTACCT stands 0.0156 E-score; under TCAGTCGA, -0.147 E-score. AAAACCTT: the binding signal was -0.209 E-score. On to AAGGGTAA, for which the binding signal was determined as 0.173 E-score.

With AGAGTTGA, the binding signal worked out at 0.103 E-score. Under CGTTAAGA stands -0.0997 E-score; under CTAAGAAA, -0.157 E-score. Under AGAAGCTG stands -0.139 E-score; under AAAATTCT, -0.319 E-score; under AGTGCTGG, -0.157 E-score. Then AAGGTTCA, with -0.0406 E-score.

In the case of CAGTCACC, the binding signal was -0.153 E-score. Consider AAGACGTG, for which the binding signal is -0.064 E-score. Under ACGGTCCA stands -0.375 E-score.

These data come from paper PMC10668032.
